Assay results reported in PubChem BioAssay AID445 (National Center for Advancing Translational Sciences (NCATS), 2006).
Hit rate of the full screen: of about 110,000 compounds, about 40 (0.04%) were called active. The shares of active, inactive and inconclusive entries below differ from those in the screen. Calls follow the shape of the dose curve; as a rule, active = well fitted curve in the direction sought with a large enough effect in the signal ratio (not every such curve was filed as active); inconclusive = small, poorly fitted or top-dose-only effect, or a change in a side signal; inactive = flat fitted curve, though single readings scatter; the % refers to the signal ratio. Potencies of inconclusive entries are doubtful fits and often do not repeat.

Test: IkB Signaling;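 as to IkBa stabilization activation: 0% = basal untreated cells and 100% = reference inhibitor full response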
Settings: ABC-DLBCL IkBa-CBG/CBR dual luciferase ratio (green luciferase fused to IkBa over red control in OCI-Ly3 lymphoma cells), 4 h; IkBa stabilization activation: at 57.1 µM (top of the series), scaled: untreated 0%, proteasome inhibitor 100% unless noted
Outline: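 Luminescence ratio of IκBα-fused green versus native red beetle luciferase in OCI-Ly3 cells, 4 h post-doxycycline with compound; red signal alone, scaled from basal (0%) to zero light (-100%), flagged nonspecific or cytotoxic effects.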
Potency is read from the fitted curve at half-maximal effect.

| Compound | IkBa stabilization activation | Potency |
| --- | --- | --- |
| CCS(=O)(=O)N1CCc2cc(C(=O)N3CCN(c4ccccc4OC)CC3)ccc21 | inconclusive: -0.513% [signal inhibitor] | – |
| COc1ccc(C(=O)N2CCC3(CCCN(C(=O)Nc4cccc(C#N)c4)C3)CC2)cc1 | inactive: -1.98% [at 11.4 µM, scaled: untreated 0%, proteasome inhibitor 100%] | – |
| COC(=O)CSc1nnc(-c2ccc(NS(=O)(=O)c3ccccc3)cc2)o1 | inconclusive: 9.14% [signal inhibitor] | – |
| COc1ccc(-c2n[nH]c(C)c2-c2cnn(-c3ccccc3)c2)c(O)c1 | inconclusive: 0.441% [signal inhibitor] | – |
| Cc1oc2cc3oc(=O)c(CC(=O)NCc4ccccc4)c(C)c3cc2c1C | inconclusive: 1.35% [signal inhibitor] | – |
| O=C1c2ccccc2C(=O)C1c1ccc2ccccc2n1 | – | inconclusive: 3.98 µM [signal inhibitor, full curve] |
| COc1ccc(C(=O)Nc2cc(Cl)ccc2Cl)c(OC)n1 | inactive | – |
| COc1cccc(NC(=O)c2oc3ccccc3c2NC(=O)c2ccc(F)c(F)c2)c1 | inconclusive: -0.908% [signal inhibitor] | – |
| CCOC(=S)SCC(=O)O | inactive: 0.729% [at 11.4 µM, scaled: untreated 0%, proteasome inhibitor 100%] | – |
| CCOC(=O)c1nn(-c2cc(C(=O)OC)cc(C(=O)OC)c2)cc1O | inactive | – |
| O=C(CSc1nc2nccnc2c(=O)n1CCc1c[nH]c2ccccc12)Nc1ccccc1 | inconclusive: -1.27% [signal inhibitor] | – |
| O=C(NC1CC(=O)N(c2ccccc2)C1)C(c1ccccc1)c1ccccc1 (stereo not drawn) | inconclusive: 6.42% [signal inhibitor] | – |
| Cc1c(CCNC(=O)c2ccc(Br)o2)sc2nc(-c3ccc(Cl)cc3)nn12 | inconclusive: -6.27% [signal inhibitor] | – |
| Cc1ccc(C(=O)N2CCCCC2)cc1NC(=O)c1nsc2ccccc12 | inconclusive: 2.66% [signal inhibitor] | – |
| COc1ccc(S(=O)(=O)N2CCC(N3CCN(Cc4ccc(F)cc4)C(=O)C3=O)CC2)cc1 | inactive | – |
| CCN(CC)CC(=O)c1ccc(-c2ccccc2)cc1 | inconclusive: -1.41% [signal inhibitor] | – |
| O=C(Nc1ccccc1C(F)(F)F)C1CCN(S(=O)(=O)Cc2ccccc2)CC1 | inconclusive: 1.28% [signal inhibitor] | – |
| CCOC(=O)Cc1csc(NC(=O)c2ccc3c(c2)OCO3)n1 | – | inconclusive: 12.6 µM [signal inhibitor, partial curve] |
| O=C(Cn1cc(C(=O)C(F)(F)F)c2ccccc21)N1CCCCCC1 | inconclusive: 7.22% [signal inhibitor] | – |
| Cn1c(N)c(C(=O)COC(=O)CCCc2c[nH]c3ccccc23)c(=O)n(C)c1=O | inconclusive: 2.25% [signal inhibitor] | – |
| Cc1c(C(=O)OC2CCC(C)CC2)[nH]c2c1C(=O)CCC2 (stereo not drawn) | – | inconclusive: 39.8 µM [signal inhibitor, single point] |
| CC1CCCCN1CCCNC(=O)c1cc(Sc2cccc(Cl)c2)nc2ccccc12 (stereo not drawn) | inconclusive: 1.8% [signal inhibitor] | – |
| CCOc1ccccc1NC1(c2ccccc2)C(=O)c2ccccc2C1=O | inactive | – |

| Compound | IkBa stabilization activation | Potency |
| --- | --- | --- |
| Clc1ccc(-c2nc3nc4ccccc4nc3n2Cc2ccco2)cc1 | – | inconclusive: 0.158 µM [signal inhibitor, full curve] |
| Cc1nc2sccn2c(=O)c1CCN1CCC(=C(c2ccccc2)c2ccc(F)cc2)CC1 | inconclusive: -0.101% [signal inhibitor] | – |
| CCNC(=O)c1ccc2c(c1)nc1n2CCCCC1 | inactive | – |
| O=C(CN1CCN(c2ccccn2)CC1)Nc1ccc2ccccc2c1 | inconclusive: 1.9% [signal inhibitor] | – |
| CCN(CC)C(c1ccc(F)cc1)c1nnnn1C1CCCCC1 (stereo not drawn) | inactive | – |
| COc1cccc(N2CCN(C(=O)C3CCCN(S(=O)(=O)c4cccc5nsnc45)C3)CC2)c1 (stereo not drawn) | inconclusive: 3.74% [signal inhibitor] | – |
| CC1=C(C#N)C(C)C2=C(CC(C)(C)CC2=O)N1 (stereo not drawn) | inactive | – |
| CCOc1ccc(C(=O)c2cn(CC(=O)Nc3ccc4c(c3)OCO4)c3ccc(OC)cc3c2=O)cc1 | inconclusive: 0.28% [signal inhibitor] | – |
| COc1ccc(OC)c(NC(=O)Cn2c(=O)c3cccn3c3ccccc32)c1 | inconclusive: 1.38% [signal inhibitor] | – |
| COc1ccc2[nH]c3c(c2c1)CCn1c-3nc2ccccc2c1=O | inactive | – |
| Cc1ccc(S(=O)(=O)c2cn(CC(=O)Nc3cccc(Cl)c3)c3ccccc3c2=O)cc1 | inconclusive: 7.07% [signal inhibitor] | – |
| COc1cc(OC)c(-c2nn3c(-c4ccncc4)nnc3s2)cc1OC | inactive | – |
| CCOc1ccc(C(=O)Nc2cc(-c3nc4cc(OC)ccc4o3)ccc2C)cc1[N+](=O)[O-] | – | inconclusive: 20 µM [rising, partial curve] |
| COc1ccc(C(=O)Nc2nc(-c3cccs3)cs2)cc1 | inconclusive: -0.626% [signal inhibitor] | – |
| CC(=O)N1CCC[C@@]2(CCN(Cc3ccc(C#N)cc3)C2)C1 | inactive: -0.656% [at 11.4 µM, scaled: untreated 0%, proteasome inhibitor 100%] | – |
| CCn1c2ccccc2c2cc(CN3CCN(Cc4cc(OC)c(O)c(OC)c4)CC3)ccc21 | inconclusive: 12% [signal inhibitor] | – |
| COc1cc2[nH]c(=O)n(Cc3ccc(C(=O)N4CCN(c5ccc(Cl)cc5)CC4)cc3)c(=O)c2cc1OC | inconclusive: 19.5% [signal inhibitor] | – |
| CCOC(=O)c1cccc(NC(=O)c2cccs2)c1 | inactive | – |
| Cc1ccc(Cn2c(C)nc3c(c2=O)c2nc4ccccc4nc2n3Cc2ccco2)cc1 | – | inconclusive: 20 µM [signal inhibitor, partial curve] |
| CCc1cccc(NC(=O)CSc2nncn3c2cc2sccc23)c1 | inconclusive: 3.09% [signal inhibitor] | – |
| Cc1ccc(Cl)cc1N1CCN(C(=O)CN2C(=O)COc3ccc(S(=O)(=O)N4CCCCCC4)cc32)CC1 | inactive | – |
| COc1c(-c2ccccc2)oc2c(ccc3occc32)c1=O | inactive: -1.41% [at 11.4 µM, scaled: untreated 0%, proteasome inhibitor 100%] | – |
| CSc1nnc2c(n1)OC(C)N(C(=O)c1ccccc1)c1ccccc1-2 (stereo not drawn) | – | inconclusive: 0.398 µM [signal inhibitor, full curve] |

| Compound | IkBa stabilization activation | Potency |
| --- | --- | --- |
| Cc1oc2ccc(O)c(CN3CCOCC3)c2c1C(=O)Nc1cccc(C(F)(F)F)c1 | inactive | – |
| COc1ccc(-c2cc(C(F)(F)F)nc(SCC(=O)Nc3cc(C)on3)n2)cc1OC | inactive | – |
| O=C(Nc1ccccc1Oc1ccccc1)c1ccc(Br)o1 | inconclusive: 2.67% [signal inhibitor] | – |
| COc1cccc(C2C(C(=O)Nc3ccc(Cl)cc3)=C(C)Nc3nc4ccccc4n32)c1OC (stereo not drawn) | inconclusive: 3.79% [signal inhibitor] | – |
| CC(=O)N1CCCc2cc(S(=O)(=O)N3CCN(c4ccccc4F)CC3)ccc21 | inactive | – |
| Cc1ccc2c(c1)N(C(=O)N1CCC(C(=O)NCc3ccccc3C)CC1)CC(C)O2 (stereo not drawn) | inactive | – |
| CCCCN(C(=O)NC(=O)Nc1nc2ccc(OC)cc2s1)S(C)(=O)=O | inactive | – |
| CCCc1nnc(NC(=O)c2cc(=O)c3ccccc3o2)s1 | inconclusive: 3.68% [signal inhibitor] | – |
| NC(=NCCCCCCN=C(N)/N=C(\N)Nc1ccc(Cl)cc1)/N=C(\N)Nc1ccc(Cl)cc1 | inconclusive: -6.16% [signal inhibitor] | – |
| CCOC(=O)c1c(C)n(-c2ccccc2)c2ccc(OC(=O)COc3ccccc3)cc12 | inconclusive: 5.41% [signal inhibitor] | – |
| COc1ccc(N2CCN(C(=O)C3CCCN(C(=O)c4cc5sccc5n4C)C3)CC2)cc1 (stereo not drawn) | inconclusive: -1.21% [signal inhibitor] | – |
| Cc1ccc(OCc2nc3ccccc3n2CC(C)C)cc1 | inconclusive: 4.87% [signal inhibitor] | – |
| C1=C(CN2CCOCC2)COc2c1cccc2OC[C@@H]1CNCCO1 | inactive | – |
| Cc1cc(C(=O)CSc2nc(N)cc(N)n2)c(C)n1CCc1ccc(F)cc1 | inconclusive: 0.634% [signal inhibitor] | – |
| Cc1cc2c(cc1S(=O)(=O)NCc1ccc(N(C)C)cc1)OCC(=O)N2 | inconclusive: 1.75% [signal inhibitor] | – |
| CCCN(C(=O)c1cc2c(s1)-c1ccccc1SC2)c1ccccc1F | – | inconclusive: 10 µM [signal inhibitor, partial curve] |
| Cc1ccc(CN2CCC(CNc3ncnc4onc(-c5ccc(Cl)cc5)c34)CC2)cc1 | inconclusive: -1.88% [signal inhibitor] | – |
| CC1(c2ccc(Cl)cc2)CC(C)(C)N(C(=O)c2ccccc2)c2ccccc21 (stereo not drawn) | inconclusive: -2.01% [signal inhibitor] | – |
| COc1cccc(-n2ccnc2SCC(=O)Nc2cccc(C)c2C)c1 | inconclusive: 2.11% [signal inhibitor] | – |
| COc1ccc(-n2ncc(C(=O)NCc3ccccc3)c2C2CCN(C(=O)OC(C)(C)C)CC2)cc1 | inconclusive: -0.232% [signal inhibitor] | – |
| COc1ccc(-c2nc3c(C#N)c[nH]n3c2NC2CCCCC2)c(OC)c1 | inconclusive: -2.9% [signal inhibitor] | – |
| COc1cccc(N2CCN(C(=O)C3CCC(CNS(=O)(=O)c4ccc(Br)s4)CC3)CC2)c1 (stereo not drawn) | inconclusive: 14.7% [signal inhibitor] | – |
